Article PMC4336329 (PLoS ONE, 2015)
Hit rate of the full screen: of about 310,000 compounds, about 14,000 (4.5%) showed an effect of 50% or more. Effects have a minus sign here. Some of the results follow.
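Further: peak tail current of the secondary pulse compared with the same well before compound.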

These compounds were tested against human ether-à-go-go-related gene (hERG) potassium channel (human, UniProt Q12809) (assay: primary screen, population patch clamp on CHO cells stably expressing hERG).
Chain of human ether-à-go-go-related gene (hERG) potassium channel (Q12809 whole entry, looked up): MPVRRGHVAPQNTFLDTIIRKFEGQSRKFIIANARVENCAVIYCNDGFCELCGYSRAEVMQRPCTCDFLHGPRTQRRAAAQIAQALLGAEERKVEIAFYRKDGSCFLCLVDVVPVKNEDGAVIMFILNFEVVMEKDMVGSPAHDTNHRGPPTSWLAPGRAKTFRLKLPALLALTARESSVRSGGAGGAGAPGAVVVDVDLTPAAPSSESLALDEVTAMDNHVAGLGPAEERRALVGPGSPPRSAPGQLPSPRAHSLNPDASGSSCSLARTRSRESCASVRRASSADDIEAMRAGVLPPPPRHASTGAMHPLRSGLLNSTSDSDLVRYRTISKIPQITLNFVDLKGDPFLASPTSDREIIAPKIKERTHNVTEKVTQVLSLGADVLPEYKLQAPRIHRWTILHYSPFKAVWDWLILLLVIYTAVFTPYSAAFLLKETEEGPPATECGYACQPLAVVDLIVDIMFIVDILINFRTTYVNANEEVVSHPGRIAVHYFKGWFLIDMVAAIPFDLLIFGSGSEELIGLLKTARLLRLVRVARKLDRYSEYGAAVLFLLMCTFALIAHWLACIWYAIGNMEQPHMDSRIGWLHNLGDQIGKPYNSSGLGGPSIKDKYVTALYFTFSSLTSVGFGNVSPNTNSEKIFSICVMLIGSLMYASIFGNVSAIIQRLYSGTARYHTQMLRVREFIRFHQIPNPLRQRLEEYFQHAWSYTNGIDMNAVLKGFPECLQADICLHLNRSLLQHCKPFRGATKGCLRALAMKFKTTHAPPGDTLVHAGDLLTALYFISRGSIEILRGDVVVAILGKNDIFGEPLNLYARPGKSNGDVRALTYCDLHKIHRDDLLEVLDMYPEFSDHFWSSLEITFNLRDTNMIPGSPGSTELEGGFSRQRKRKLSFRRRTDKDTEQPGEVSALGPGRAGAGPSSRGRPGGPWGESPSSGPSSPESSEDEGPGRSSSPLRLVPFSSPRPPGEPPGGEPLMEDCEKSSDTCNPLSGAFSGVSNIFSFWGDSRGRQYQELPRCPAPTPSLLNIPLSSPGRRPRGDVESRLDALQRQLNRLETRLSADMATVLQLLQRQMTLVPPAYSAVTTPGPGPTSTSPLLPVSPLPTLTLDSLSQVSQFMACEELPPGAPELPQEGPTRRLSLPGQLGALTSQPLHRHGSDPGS
With `COC(=O)CNC(=O)c1cc(-c2ccncc2)nc2ccccc12` the “hERG current change (%, negative = inhibition) at 10uM” value was -7.19%. In the case of `Cc1ccc(NC(=O)Cn2cccc2)cc1`, the “hERG current change (%, negative = inhibition) at 10uM” value is reported as -19.2%. With `CCC1CCCCN1C(=O)CSc1nnc(-c2ccc(Cl)cc2)o1` (stereo not shown) the “hERG current change (%, negative = inhibition) at 10uM” value was -7.62%. `COc1ccccc1N(Cc1cc(=O)[nH]c2ccccc12)C(=O)c1cccc([N+](=O)[O-])c1` was tested, and the “hERG current change (%, negative = inhibition) at 10uM” value was 5.22%. For `O=C(NC1=NCCS1)C1CCN(S(=O)(=O)c2ccc(Cl)cc2)CC1`, the “hERG current change (%, negative = inhibition) at 10uM” value was 14%. In the case of `N#Cc1ccccc1OCC(=O)NCc1ccccc1CN1CCCC1`, the “hERG current change (%, negative = inhibition) at 10uM” value is reported as -22.4%. In the case of `CCOC(=O)c1cnc2c(C#N)cnn2c1N`, the “hERG current change (%, negative = inhibition) at 10uM” value is reported as 12.5%. `C=C1C(=O)O[C@@H]2C[C@@H](C)[C@H]3C=CC(=O)[C@]3(O)C[C@@H]12` was tested, and the “hERG current change (%, negative = inhibition) at 10uM” value was 19.3%. In the case of `C/C(=N\OCC(=O)O)c1ccc(Cl)cc1`, the “hERG current change (%, negative = inhibition) at 10uM” value is reported as 13.5%. For `CC1C(=O)Nc2ccccc2N1C(=O)c1cccc(C(F)(F)F)c1` (stereo not shown), the “hERG current change (%, negative = inhibition) at 10uM” value was -20.2%. In the case of `COc1ccc(Cn2c(SCc3ccccc3C)nc3cc(OC)c(OC)cc3c2=N)cc1`, the “hERG current change (%, negative = inhibition) at 10uM” value is reported as -1.25%. With `Cc1cc(C)n2nc(SCCOc3ccccc3)nc2n1` the “hERG current change (%, negative = inhibition) at 10uM” value was -38.7%. `Cc1noc(C)c1S(=O)(=O)N1CCCC(C(=O)NCc2ccccn2)C1` (stereo not shown) was tested, and the “hERG current change (%, negative = inhibition) at 10uM” value was 3.78%. `CC(=O)N(C1=C(Cl)C(=O)c2ccccc2C1=O)c1ccc(C(=O)O)cc1` was tested, and the “hERG current change (%, negative = inhibition) at 10uM” value was 3.2%. For `Cc1csc(NC(=O)CSc2nnc(-c3ccc(Cl)cc3)n2N)n1`, the “hERG current change (%, negative = inhibition) at 10uM” value was -6.15%. For `COc1ccccc1C(=O)NNC(=O)C(=O)Nc1cccc(Cl)c1C`, the “hERG current change (%, negative = inhibition) at 10uM” value was 26.9%. For `CCOC(=O)NC(O)C(=O)c1cccs1` (stereo not shown), the “hERG current change (%, negative = inhibition) at 10uM” value was 24.3%. In the case of `C=CCNC(=O)C1CCN(S(=O)(=O)CC)CC1`, the “hERG current change (%, negative = inhibition) at 10uM” value is reported as 0.813%. In the case of `COc1ccc(NC(=O)c2ccc(COc3ccccc3Br)o2)c(OC)c1`, the “hERG current change (%, negative = inhibition) at 10uM” value is reported as 10.5%. In the case of `Cc1ccc(CSC2=NCCN2S(=O)(=O)c2ccc(F)cc2)cc1`, the “hERG current change (%, negative = inhibition) at 10uM” value is reported as 4.62%. With `O=C(NC(=S)N1CCCc2ccccc21)c1ccco1` the “hERG current change (%, negative = inhibition) at 10uM” value was -1.2%. `COc1ccc(C(=O)NC2CCN(C(=S)NCCc3ccccc3)CC2)cc1` was tested, and the “hERG current change (%, negative = inhibition) at 10uM” value was 8.78%. For `CC(C)Cc1c2c([nH]c(=S)c1C#N)CCCC2`, the “hERG current change (%, negative = inhibition) at 10uM” value was 14.1%. `O=C(CSc1nnc(CNC(=O)c2cccc(C(F)(F)F)c2)o1)NC1CCCC1` was tested, and the “hERG current change (%, negative = inhibition) at 10uM” value was 5.51%. With `COc1ccc(C(=O)C2CCCN(C(=O)c3ccc(F)cc3)C2)cc1OC` (stereo not shown) the “hERG current change (%, negative = inhibition) at 10uM” value was -3.95%. With `N#C/C(=C\c1cn(Cc2cccc(F)c2)c2ccccc12)C(=O)NCc1ccco1` the “hERG current change (%, negative = inhibition) at 10uM” value was -1.04%. With `c1ccc(SCCCCNC2CCCC2)cc1` the “hERG current change (%, negative = inhibition) at 10uM” value was -30.4%. In the case of `Cc1cc(NS(=O)(=O)c2ccc(NC(=S)NC(=O)c3cccnc3)cc2)no1`, the “hERG current change (%, negative = inhibition) at 10uM” value is reported as 13.3%. For `COc1ccc(NC(=O)/C=C/c2ccccc2)cn1`, the “hERG current change (%, negative = inhibition) at 10uM” value was -4.92%. With `N#Cc1cn(-c2cccc(C(F)(F)F)c2)c(=O)[nH]c1=O` the “hERG current change (%, negative = inhibition) at 10uM” value was 15%. In the case of `Nc1c(-c2cccs2)cnn1-c1nc(-c2ccc(F)cc2)cs1`, the “hERG current change (%, negative = inhibition) at 10uM” value is reported as 10.8%. With `CN(C)S(=O)(=O)c1ccc(C(=O)OCC(=O)Nc2ccc(OC(F)F)cc2)cc1` the “hERG current change (%, negative = inhibition) at 10uM” value was 16.4%. For `CSc1nnc(CNS(=O)(=O)c2ccc(Cl)cc2)n1C`, the “hERG current change (%, negative = inhibition) at 10uM” value was 17.4%. In the case of `Cc1ccc(NC2=NC(=S)N(CC#N)C23CCCCC3)cc1`, the “hERG current change (%, negative = inhibition) at 10uM” value is reported as -6.19%. In the case of `COCCNC(=O)c1c(N)n(-c2ccccc2)c2nc3ccccc3nc12`, the “hERG current change (%, negative = inhibition) at 10uM” value is reported as -27.2%. With `O=c1nc(Nc2cccc(Cl)c2)oc2cc(Cl)oc(=O)c12` the “hERG current change (%, negative = inhibition) at 10uM” value was 9.57%. With `COC(=O)CSc1nc(N)c2c3c(sc2n1)CCCC3` the “hERG current change (%, negative = inhibition) at 10uM” value was -18.3%. `O=S(=O)(NC1CCCCC1N1CCC(O)CC1)c1ccc(Cl)cc1` (stereo not shown) was tested, and the “hERG current change (%, negative = inhibition) at 10uM” value was 20.7%. In the case of `CCOc1ccccc1OCCCOc1ccc(C)cc1Br`, the “hERG current change (%, negative = inhibition) at 10uM” value is reported as 7.97%. `C=CCCCCCCCC(=O)OC` was tested, and the “hERG current change (%, negative = inhibition) at 10uM” value was 24.6%. For `CC(C)COc1ccc(C2(C#N)CC[N+](C)(C)CC2)cc1.[Br-]`, the “hERG current change (%, negative = inhibition) at 10uM” value was 5.72%. In the case of `Cc1cccc(C)c1OCC(=O)Nc1ccc(S(=O)(=O)Nc2ccccn2)cc1`, the “hERG current change (%, negative = inhibition) at 10uM” value is reported as 0.175%. In the case of `CN(C)CCCN(C(=O)c1ccco1)c1nc2ccc(Br)cc2s1.Cl`, the “hERG current change (%, negative = inhibition) at 10uM” value is reported as -71.8%. `Cc1sc2ncn(CC(=O)NCCCN3CCC(C)CC3)c(=O)c2c1S(=O)(=O)N1CCC(C)CC1` was tested, and the “hERG current change (%, negative = inhibition) at 10uM” value was -8.34%. With `O=C(Nc1ccncc1)c1ccc(C(=O)Nc2ccncc2)cc1` the “hERG current change (%, negative = inhibition) at 10uM” value was 41.2%. In the case of `COc1ccc(C(=O)/C=C/c2cn(CC(O)CN3CCN(C)CC3)c3ccccc23)cc1OC` (stereo not shown), the “hERG current change (%, negative = inhibition) at 10uM” value is reported as -40.7%. `CCc1sc(NC(=O)C(C)C)nc1-c1ccccc1` was tested, and the “hERG current change (%, negative = inhibition) at 10uM” value was -1.18%. In the case of `Cc1n[nH]c(=S)n1/N=C/c1c(O)ccc2ccccc12`, the “hERG current change (%, negative = inhibition) at 10uM” value is reported as 24.1%. In the case of `COC(=O)c1ccc(Oc2nc(C(N)=O)cc(-c3ccccc3)n2)cc1`, the “hERG current change (%, negative = inhibition) at 10uM” value is reported as 10.7%. In the case of `CCC/C(=N\NC(=O)CNC(=O)/C=C/c1ccco1)c1ccccc1`, the “hERG current change (%, negative = inhibition) at 10uM” value is reported as -9.16%. For `O=C(COc1ccc(S(=O)(=O)N2CCCCC2)cc1)N1CCN(Cc2ccccc2)CC1`, the “hERG current change (%, negative = inhibition) at 10uM” value was -32.5%. `CCN1CCN(CCCNC(=O)CNC(=O)c2nn(-c3ccc(OC)cc3OC)c(=O)c3ccccc23)CC1` was tested, and the “hERG current change (%, negative = inhibition) at 10uM” value was 19.2%. In the case of `COc1ccc(-n2ncc3c2CC(C)(C)CC3NC(=O)CCc2c(C)nn(C)c2C)cc1` (stereo not shown), the “hERG current change (%, negative = inhibition) at 10uM” value is reported as -30.4%. `CCC1(C)Cc2c(sc3[nH]c(=S)n(Cc4ccccc4)c(=O)c23)CO1` (stereo not shown) was tested, and the “hERG current change (%, negative = inhibition) at 10uM” value was 3.04%. With `CNC(=S)Nc1cc(OC)c(NC(=O)c2ccco2)cc1OC` the “hERG current change (%, negative = inhibition) at 10uM” value was 14.9%. With `CCCOc1ccc(C(=O)NNC(=S)NC(=O)c2cccs2)cc1` the “hERG current change (%, negative = inhibition) at 10uM” value was 16.7%. `CCOC(=O)c1nn(-c2cccc(C)c2)c2nc(-c3ccccc3)c(C#N)c(=O)n12` was tested, and the “hERG current change (%, negative = inhibition) at 10uM” value was -10.4%. For `CC/C(=N\NC(=O)C1CCCC1)c1ccc(Br)cc1`, the “hERG current change (%, negative = inhibition) at 10uM” value was 26%.
